Several values for one entry are separate records, joined by “and”; a condition that tells them apart may be missing. Equal values may be shown once. ± gives the uncertainty stated by the source. This continues a long series; more values of the same kind are listed elsewhere.
Test: xn = mol fraction of the nth substance listed

CN(C)C=O + O
Details	viscosity
293.15 K, 100 kPa, x2 = 0.1	0.959 ± 0.012 mPa·s
293.15 K, 100 kPa, x2 = 0.2	1.122 ± 0.014 mPa·s
293.15 K, 100 kPa, x2 = 0.3	1.347 ± 0.016 mPa·s
293.15 K, 100 kPa, x2 = 0.4	1.665 ± 0.02 mPa·s
293.15 K, 100 kPa, x2 = 0.5	2.081 ± 0.024 mPa·s
293.15 K, 100 kPa, x2 = 0.6	2.549 ± 0.029 mPa·s
293.15 K, 100 kPa, x2 = 0.7	2.867 ± 0.033 mPa·s
293.15 K, 100 kPa, x2 = 0.8	2.746 ± 0.031 mPa·s
293.15 K, 100 kPa, x2 = 0.9	2.009 ± 0.023 mPa·s
293.15 K, 100 kPa, x2 = 0.92	1.808 ± 0.021 mPa·s
293.15 K, 100 kPa, x2 = 0.94	1.612 ± 0.018 mPa·s
293.15 K, 100 kPa, x2 = 0.96	1.399 ± 0.016 mPa·s
293.15 K, 100 kPa, x2 = 0.98	1.197 ± 0.014 mPa·s
293.15 K, 101 kPa, x2 = 0.6	2.73 ± 0.64 mPa·s
293.15 K, 101 kPa, x2 = 0.8	2.69 ± 0.63 mPa·s
298 K, 101 kPa, x1 = 0.02362	1.099 ± 0.0064 mPa·s
298 K, 101 kPa, x1 = 0.027	1.024 ± 0.0087 mPa·s
298 K, 101 kPa, x1 = 0.058	1.479 ± 0.013 mPa·s
298 K, 101 kPa, x1 = 0.096	1.688 ± 0.014 mPa·s
298 K, 101 kPa, x1 = 0.14	2.147 ± 0.018 mPa·s
298.15 K, 100 kPa, x2 = 0.1	0.8957 ± 0.011 mPa·s
298.15 K, 100 kPa, x2 = 0.2	1.033 ± 0.013 mPa·s
298.15 K, 100 kPa, x2 = 0.3	1.228 ± 0.015 mPa·s
298.15 K, 100 kPa, x2 = 0.4	1.499 ± 0.018 mPa·s
298.15 K, 100 kPa, x2 = 0.5	1.841 ± 0.022 mPa·s
298.15 K, 100 kPa, x2 = 0.6	2.218 ± 0.026 mPa·s
298.15 K, 100 kPa, x2 = 0.7	2.462 ± 0.028 mPa·s
298.15 K, 100 kPa, x2 = 0.8	2.337 ± 0.027 mPa·s
298.15 K, 100 kPa, x2 = 0.9	1.739 ± 0.02 mPa·s
298.15 K, 100 kPa, x2 = 0.92	1.572 ± 0.018 mPa·s
298.15 K, 100 kPa, x2 = 0.94	1.404 ± 0.016 mPa·s
298.15 K, 100 kPa, x2 = 0.96	1.23 ± 0.014 mPa·s
298.15 K, 100 kPa, x2 = 0.98	1.06 ± 0.012 mPa·s
298.15 K, 101 kPa, x1 = 0.02	1.091 ± 0.0094 mPa·s
298.15 K, 101 kPa, x1 = 0.03	1.109 ± 0.011 mPa·s
298.15 K, 101 kPa, x1 = 0.05	1.326 ± 0.015 mPa·s
298.15 K, 101 kPa, x1 = 0.0503	1.361 ± 0.011 mPa·s
298.15 K, 101 kPa, x1 = 0.06	1.37 ± 0.015 mPa·s
298.15 K, 101 kPa, x1 = 0.1006	1.79 ± 0.013 mPa·s
298.15 K, 101 kPa, x1 = 0.1202	1.94 ± 0.014 mPa·s
298.15 K, 101 kPa, x1 = 0.1498	2.138 ± 0.015 mPa·s
298.15 K, 101 kPa, x1 = 0.15	2.127 ± 0.027 mPa·s
298.15 K, 101 kPa, x1 = 0.1698	2.259 ± 0.015 mPa·s
298.15 K, 101 kPa, x1 = 0.2	2.36 ± 0.032 mPa·s
298.15 K, 101 kPa, x1 = 0.2002	2.395 ± 0.016 mPa·s
298.15 K, 101 kPa, x1 = 0.22	2.459 ± 0.017 mPa·s
298.15 K, 101 kPa, x1 = 0.25	2.485 ± 0.035 mPa·s
298.15 K, 101 kPa, x1 = 0.2504	2.52 ± 0.017 mPa·s
298.15 K, 101 kPa, x1 = 0.2702	2.536 ± 0.017 mPa·s
298.15 K, 101 kPa, x1 = 0.3	2.484 ± 0.037 mPa·s and 2.5 ± 0.025 mPa·s and 2.473 ± 0.042 mPa·s
298.15 K, 101 kPa, x1 = 0.3001	2.526 ± 0.017 mPa·s
298.15 K, 101 kPa, x1 = 0.3202	2.501 ± 0.017 mPa·s
298.15 K, 101 kPa, x1 = 0.3499	2.442 ± 0.017 mPa·s
298.15 K, 101 kPa, x1 = 0.35	2.405 ± 0.037 mPa·s
298.15 K, 101 kPa, x1 = 0.4	2.239 ± 0.036 mPa·s and 2.255 ± 0.022 mPa·s
298.15 K, 101 kPa, x1 = 0.4003	2.288 ± 0.016 mPa·s
298.15 K, 101 kPa, x1 = 0.4503	2.105 ± 0.015 mPa·s
298.15 K, 101 kPa, x1 = 0.5	1.862 ± 0.032 mPa·s and 1.916 ± 0.013 mPa·s and 1.911 ± 0.042 mPa·s
298.15 K, 101 kPa, x1 = 0.6	1.513 ± 0.029 mPa·s
298.15 K, 101 kPa, x1 = 0.6002	1.563 ± 0.011 mPa·s
298.15 K, 101 kPa, x1 = 0.7	1.287 ± 0.0099 mPa·s
298.15 K, 101 kPa, x1 = 0.8	1.084 ± 0.0087 mPa·s
298.15 K, 101 kPa, x1 = 0.8501	1.03 ± 0.0084 mPa·s
298.15 K, 101 kPa, x1 = 0.9	0.8984 ± 0.022 mPa·s and 0.9619 ± 0.008 mPa·s
298.15 K, 101.33 kPa, x1 = 0.042	1.253 ± 0.01 mPa·s
298.15 K, 101.33 kPa, x1 = 0.076	1.547 ± 0.014 mPa·s
298.15 K, 101.33 kPa, x2 = 0.1056	0.914 ± 0.023 mPa·s
298.15 K, 101.33 kPa, x2 = 0.303	1.226 ± 0.03 mPa·s
298.15 K, 101.33 kPa, x2 = 0.4062	1.497 ± 0.036 mPa·s
298.15 K, 101.33 kPa, x2 = 0.5088	1.857 ± 0.043 mPa·s
298.15 K, 101.33 kPa, x2 = 0.6057	2.211 ± 0.051 mPa·s
298.15 K, 101.33 kPa, x2 = 0.7015	2.426 ± 0.055 mPa·s
298.15 K, 101.33 kPa, x2 = 0.8044	2.295 ± 0.052 mPa·s
298.15 K, 101.33 kPa, x2 = 0.9034	1.69 ± 0.039 mPa·s
303.15 K, 100 kPa, x2 = 0.1	0.8364 ± 0.01 mPa·s
303.15 K, 100 kPa, x2 = 0.2	0.9538 ± 0.012 mPa·s
303.15 K, 100 kPa, x2 = 0.3	1.118 ± 0.013 mPa·s
303.15 K, 100 kPa, x2 = 0.4	1.348 ± 0.016 mPa·s
303.15 K, 100 kPa, x2 = 0.5	1.634 ± 0.019 mPa·s
303.15 K, 100 kPa, x2 = 0.6	1.933 ± 0.022 mPa·s
303.15 K, 100 kPa, x2 = 0.7	2.126 ± 0.024 mPa·s
303.15 K, 100 kPa, x2 = 0.8	2.014 ± 0.023 mPa·s
303.15 K, 100 kPa, x2 = 0.9	1.511 ± 0.017 mPa·s
303.15 K, 100 kPa, x2 = 0.92	1.375 ± 0.016 mPa·s
303.15 K, 100 kPa, x2 = 0.94	1.236 ± 0.014 mPa·s
303.15 K, 100 kPa, x2 = 0.96	1.088 ± 0.013 mPa·s
303.15 K, 100 kPa, x2 = 0.98	0.9425 ± 0.011 mPa·s
303.15 K, 101 kPa, x1 = 0.0503	1.201 ± 0.0098 mPa·s
303.15 K, 101 kPa, x1 = 0.0699	1.349 ± 0.011 mPa·s
303.15 K, 101 kPa, x1 = 0.1006	1.565 ± 0.012 mPa·s
303.15 K, 101 kPa, x1 = 0.1202	1.689 ± 0.012 mPa·s
303.15 K, 101 kPa, x1 = 0.1498	1.857 ± 0.013 mPa·s
303.15 K, 101 kPa, x1 = 0.1698	1.954 ± 0.014 mPa·s
303.15 K, 101 kPa, x1 = 0.2002	2.068 ± 0.014 mPa·s
303.15 K, 101 kPa, x1 = 0.22	2.121 ± 0.015 mPa·s
303.15 K, 101 kPa, x1 = 0.2504	2.174 ± 0.015 mPa·s
303.15 K, 101 kPa, x1 = 0.2702	2.189 ± 0.015 mPa·s
303.15 K, 101 kPa, x1 = 0.3202	2.165 ± 0.015 mPa·s
303.15 K, 101 kPa, x1 = 0.3499	2.121 ± 0.015 mPa·s
303.15 K, 101 kPa, x1 = 0.4003	2 ± 0.014 mPa·s
303.15 K, 101 kPa, x1 = 0.4503	1.854 ± 0.013 mPa·s
303.15 K, 101 kPa, x1 = 0.5	1.701 ± 0.012 mPa·s
303.15 K, 101 kPa, x1 = 0.7	1.176 ± 0.0093 mPa·s
303.15 K, 101 kPa, x1 = 0.8	1.002 ± 0.0083 mPa·s
303.15 K, 101 kPa, x1 = 0.8501	0.9556 ± 0.008 mPa·s
303.15 K, 101 kPa, x1 = 0.9	0.8958 ± 0.0077 mPa·s
303.15 K, 101.33 kPa, x1 = 0.099	1.521 ± 0.012 mPa·s
303.15 K, 101.33 kPa, x1 = 0.2009	2.023 ± 0.015 mPa·s
303.15 K, 101.33 kPa, x1 = 0.3008	2.13 ± 0.016 mPa·s
303.15 K, 101.33 kPa, x1 = 0.3995	1.942 ± 0.015 mPa·s
303.15 K, 101.33 kPa, x1 = 0.5005	1.629 ± 0.013 mPa·s
303.15 K, 101.33 kPa, x1 = 0.5999	1.36 ± 0.011 mPa·s
303.15 K, 101.33 kPa, x1 = 0.6997	1.127 ± 0.009 mPa·s
303.15 K, 101.33 kPa, x1 = 0.7998	0.9634 ± 0.0078 mPa·s
303.15 K, 101.33 kPa, x1 = 0.9	0.845 ± 0.007 mPa·s
308.15 K, 100 kPa, x2 = 0.1	0.7824 ± 0.0097 mPa·s
308.15 K, 100 kPa, x2 = 0.2	0.8866 ± 0.011 mPa·s
308.15 K, 100 kPa, x2 = 0.3	1.03 ± 0.012 mPa·s
308.15 K, 100 kPa, x2 = 0.4	1.22 ± 0.015 mPa·s
308.15 K, 100 kPa, x2 = 0.5	1.463 ± 0.017 mPa·s
308.15 K, 100 kPa, x2 = 0.6	1.697 ± 0.02 mPa·s
308.15 K, 100 kPa, x2 = 0.7	1.85 ± 0.021 mPa·s
308.15 K, 100 kPa, x2 = 0.8	1.752 ± 0.02 mPa·s
308.15 K, 100 kPa, x2 = 0.9	1.331 ± 0.015 mPa·s
308.15 K, 100 kPa, x2 = 0.92	1.217 ± 0.014 mPa·s
308.15 K, 100 kPa, x2 = 0.94	1.097 ± 0.013 mPa·s
308.15 K, 100 kPa, x2 = 0.96	0.9683 ± 0.011 mPa·s
308.15 K, 100 kPa, x2 = 0.98	0.8451 ± 0.0098 mPa·s
308.15 K, 101 kPa, x1 = 0.02	0.869 ± 0.0079 mPa·s

Reference: the CheMixHub viscosity set
